The supplement of paper PMC3334620
In all, about 33,000 sequences were measured (“E-score (-0.5 to 0.5)”: median about -0.016, highest 2% from about 0.31 on). The list shows a part of the results.

Each sequence was assayed against Cst6 (UniProt P40535) (assay: PBM E-score (8-mer binding enrichment) (E-score (-0.5 to 0.5)); higher = stronger / more preferred TF binding; most listed sequences are background and not binding sites). Conditions: protein concentration: 200 nM; construct: GST-DNA-binding domain.
Outline: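 Bound GST-tagged yeast transcription factors, applied at about 100-200 nM to double-stranded universal all-10-mer Agilent arrays, were detected with fluorescent anti-GST. Scans were normalised with masliner. A modified Wilcoxon-Mann-Whitney statistic, the E-score, was assigned to each ungapped eight-base word pooled with its reverse complement by the Universal PBM Analysis Suite.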

Sequence	PBM E-score
GCTCCTGA	-0.0951
CACAAGCG	-0.00602
TAAGTGTA	0.0518
GCTGGGAA	-0.201
ATCTCTCA	0.15
CGTAACGA	0.174
CGTTCGCA	-0.0183
CCGGGTAG	-0.222
ACTGCGGC	0.0826
CGCACCCC	-0.188
TTAGCCAA	-0.108
TAACAGAA	0.203
AGACTACG	-0.266
GAGGCTCA	-0.128
GCATACAC	0.0161
AAATATAG	0.297
CATTTTGA	0.0465
CGACCCCG	-0.235
CGCTTAAA	0.18
TAAGGATA	0.0505
ATTATTCA	0.255
CCTTTATC	-0.201
CTCCCAGC	-0.338
AAGTACGA	0.113
GGGACGGA	-0.29

Sequence	PBM E-score
CAGGCATA	-0.09
GATAGCAC	-0.109
CGGAACAG	-0.135
GAAGCCGC	0.135
TCCCACCA	-0.269
GACTGCTC	-0.26
ATGTATCA	0.208
GAGTAATC	-0.0133
AAAATGTT	0.194
GTAAATCA	0.178
GCTGGACC	-0.322
AGAATCAG	0.125
AGTGCTCC	-0.159
AACCGATT	-0.0861
CGAACCAC	-0.0519
ATTTAGCG	0.0652
ACCACAAC	0.096
ACTGCATA	0.0775
CCGCCCAG	-0.187
GACTGCTA	-0.318
CTGGGCTC	-0.289
ACTTAACT	0.0697
CAATGGAC	0.105
CTCGGGCC	-0.187
CCCAGACC	-0.193

Sequence	PBM E-score
CGAGTCCA	-0.267
GAGCGAAA	0.146
GACCGTGC	-0.213
GTGAGCGA	-0.0292
AGGCTGAA	-0.117
CCGTCTCC	-0.158
CAGGAGCG	-0.0364
AAGGGTGA	0.165
ACTCGTAT	0.00989
AGAGACCC	-0.11
CACACTAA	0.215
CCGGTCAG	-0.31
ATCCGGTC	-0.231
GTCCATAA	-0.114
AATATCCT	0.0626
ACTGCAAC	-0.0166
GCCTAGCA	-0.239
CATCTAAA	0.194
AAATGCCT	0.124
GACATGTA	0.132
GGGGCAAA	-0.152
GCCGAAGA	0.117
TGCCTAAA	0.0602
CAACGCTG	0.037
AGCGTTTA	-0.156

Sequence	PBM E-score
ACGTCTTA	0.157
AGAATCTG	0.00858
GCTAAAAA	0.129
CACGCATA	-0.215
CAGAGTAC	-0.13
CGCTGCCG	-0.0508
GACGGGCC	-0.191
TAACTAAA	0.154
CCGCGGCC	0.0391
ATTAGGTA	0.261
GCGCCGCA	0.38
GCGCATAA	0.0295
ATCTTACC	0.065
GCATAGGA	-0.0572
ATCTCCCA	0.0539
ACTAGGTG	-0.313
GAAGTGAA	0.116
GTCCGCTA	-0.136
AGCGCCCA	-0.259
CCCGTACG	-0.134
ACGACTGG	-0.226
CCTGCCTC	-0.258
CCTTCAAC	0.0452
CGGGGCAA	-0.162
ACACGAAC	0.0477

Sequence	PBM E-score
CGTTTCAC	0.128
CACTAACA	0.184
ATCGTCAT	0.448
AGTGAGCC	-0.0726
GATCAAAC	0.099
AGTTGACG	0.324
GAAGCCTA	0.00335
TCAGCCCA	-0.118
CATCACTC	0.241
GCTTGGCC	-0.162
CTAGAATC	-0.12
CTGTCACC	0.0496
CTTTAAAG	0.0359
CATGTCAG	0.144
AATAGTCC	-0.196
GAACCCCC	-0.439
GGGAGGAC	-0.195
CGGACACA	-0.0824
ACCGAAGT	-0.0391
ATGCCTCC	-0.0323
CCCTCAGA	-0.228
CACGGACG	0.124
CGCTTGCC	-0.0149
TTAGAGAA	0.0169
AGTAAACC	-0.161

Sequence	PBM E-score
CGACGTCA	0.491
CAATTAAA	0.119
AATTTCCT	0.0537
AGACTATA	0.0176
CAGGATCC	-0.075
GATTCCCA	-0.117
AAGCGTTC	-0.203
AGCATCCT	-0.17
AGACATCT	-0.173
GGTGTAGA	-0.236
AGCACCGG	-0.268
AATAAAAT	0.246
ATCTCCAC	-0.0115
GCCTGGCA	-0.332
ATGCAATA	0.106
GCAACAAC	0.0303
CGAAATAA	0.26
TCACTTCA	0.12
AAAGCTTA	0.167
ACAACCAA	-0.0137
GAGCATAC	-0.094
CGAATTCC	0.0181
AGTCCCAC	-0.353
GGCGGTAC	-0.118
GATGCGCA	0.162

Sequence	PBM E-score
ATGTGTGG	0.041
TCAGCGCA	-0.176
ACATATTA	0.312
CTGGTAAG	0.161
AGGTTTGA	-0.128
AAGAGGAA	0.0991
ACTCGTTA	-0.0899
AGACAACA	0.0611
TCTCTCAA	0.168
GGAGCGTA	-0.106
ACAAATAT	0.237
AAACTAAC	0.236
ATTAGTCC	0.0565
AAGACACC	-0.0482
GTCCAGGA	-0.124
GCATTTCC	0.00255
TTCACCAA	0.124
AGTATCAC	0.102
GATCTTCC	-0.181
AATCACGG	0.168
GACGATAA	0.153
CCGACTAG	-0.237
AAATTTAT	0.234
CTTAATGA	0.0738
AGCGGCAT	0.273

Sequence	PBM E-score
CCCGTCAC	0.2
ATCGATGC	0.175
AGAAGCCA	0.128
ATGAGGAG	-0.0136
GGATTGAC	0.0732
CCGCGAAA	0.0642
AGCCGTGC	0.24
ACTTAATA	0.229
CAAAGCTA	0.0247
ACGCCAAA	-0.0919
AGAATCGC	-0.00517
CACTATGC	0.0311
GTCGTACA	-0.13
ATGCGGAA	-0.00494
CCACACGG	0.111
AACACTAC	0.151
CGGCACAG	0.0861
GAGATTTA	-0.0359
ACATGTAG	0.208
GCCTGGAA	-0.08
ATATAGCA	-0.00398
ACACGCGG	0.126
GCTACACC	-0.161
CAAACCAA	-0.0209
AAGTATCA	0.219

Sequence	PBM E-score
ATCGTTGG	-0.0911
AAGATTAC	0.127
ACCTGAGG	-0.209
GCGATAGA	0.0899
GATCGGAC	-0.0973
ATATGCAC	0.0769
AGGTGGTC	-0.166
GTTACCCA	-0.135
CCGCAGAG	-0.358
AACACGAG	-0.0109
ACTGATAT	0.109
AGCTAACC	-0.222
ACACAAAT	0.243
AAGCATGG	-0.048
ATGATGCA	0.362
ATTGCATA	0.2
CGATAACA	-0.00112
CAACACTG	0.0167
CGCTACCC	-0.357
AAACTGCC	0.0631
CGTTCAGA	-0.118
AGTACAAA	0.139
CGGCGATA	0.21
AGGTCGAA	0.0685
GGGTGGCA	-0.213

Sequence	PBM E-score
GGTCCCAC	-0.243
AGACGCGC	-0.118
CGACCCGA	-0.354
AAGAATGT	0.131
CCAGGCGG	-0.229
CGAGCTCA	-0.0803
CAGGTAAG	-0.148
AGGCGGTA	-0.225
GTAAGCGA	0.12
CCATAAAC	-0.115
TCCGAGAA	0.108
GAATGACA	0.259
AATAGCGT	0.0923
CATACACG	0.188
CTGCAGGA	-0.00456
TTGATAAA	0.269
ATAACGGG	-0.104
ATGAATCA	0.117
GACAAGTC	-0.202
CCGTATCA	0.198
GCTAATAC	0.0161
CTCTTCCA	-0.127
ACATTATA	0.201
CACGGGGA	-0.171
ATTACAAG	0.224

Sequence	PBM E-score
GTGGCCTA	-0.165
CCCTTTCA	-0.0909
ATTAAGGC	-0.0196
CACTTTAC	0.103
CTAATCAA	0.205
CGTCTAAC	0.013
AGGACGCC	-0.147
CAGCGAAA	0.0185
ATGGGGTG	0.00696
GGTTACGA	-0.0441
TCTGGTAA	0.126
CGATAGTC	0.0939
CGTGGCAA	-0.06
TCATTTAA	0.282
GTACCGAC	-0.0475
AGAACTCT	-0.0631
AGGCACCG	0.00483
GAGAGGCA	0.0296
CCACACCA	0.0287
GTCGCCAC	-0.19
AAGTAAAC	0.0452
ATGGATAC	-0.0649
AAACAAAG	0.148
AATCGCAA	0.122
CCTTCGTA	0.0135

Sequence	PBM E-score
CTTTCGGC	-0.0943
CACATCTG	-0.134
AGTACGGG	-0.185
TAAGCTAA	0.182
ATACCGGC	0.0155
CTGTTTAA	0.0885
GAGTGACC	-0.205
GGCAATTA	0.14
AAGGGCAG	-0.215
ACAGTAAA	0.131
GGATTGGA	-0.0686
CGACTTAC	-0.279
ATGGTTAC	0.25
CGCCACCA	-0.0362
GCGTAACC	0.14
CATATAGC	0.105
TATAACGA	0.167
ATCGGCTA	-0.138
CCCACCTA	-0.038
ACGAGTGC	0.0193
ACTAAACC	-0.0376
CCGTTGAA	-0.0898
CAGAATCC	-0.0985
CGTCACAC	0.414
CCCTCCAC	-0.164

Sequence	PBM E-score
CAGCAGGG	-0.276
GATATCCA	0.129
ATCAAAAA	0.208
CGTGACTC	-0.1
ATAAGACG	0.0243
ACCGCGCG	0.231
TATCCTGA	0.082
ATTACCAG	0.0801
ACATCTCA	0.0795
TTCTAGAA	0.181
ACAACTGG	-0.19
ACGGGTCC	-0.278
CGGGCCGC	-0.106
AGCAGGCG	-0.163
GACGTTGA	0.24
GCACAGGC	-0.153
CAGACGGC	0.101
TACAAAAA	0.206
AACATTAG	-0.0121
CTCAGCTA	-0.0723
AGAAACTA	0.0177
TATGAGAA	0.0584
AGGAACAT	0.0038
CGGTGCAA	-0.202
TGCCGCAA	0.18

Sequence	PBM E-score
CTCACCAG	-0.0631
ACCAAGTC	-0.123
CCCCGACA	-0.156
AATTCCGT	0.175
CAATTCAC	0.167
TGAGCACA	0.0767
ACGTACCT	-0.0969
CCTCACGC	0.22
ACGCATGA	0.104
CGAGATAC	0.216
GAAATACA	0.135
GTGGTCAA	-0.128
AAGAAGAG	0.00635
CTCTGGGA	-0.311
AGTCCACC	-0.262
AGTGGGCA	0.00486
ACCATGGA	-0.216
CGTGTCTA	0.152
GCGTGGAC	-0.171
